Measurements taken from PubChem BioAssay AID686979 (National Center for Advancing Translational Sciences (NCATS), 2013).
Where “and” joins values, the source holds several entries; their conditions need not be identical. Equal values may be shown once. In all, about 420,000 compounds went through this assay and about 50,000 (12%) were called active. This list was built around the results that the source calls inconclusive (neither active nor inactive); the mix of calls is not that of the screen. The call rests on the fitted dose curve; in most records, active means well fitted inhibition curve with a large enough effect; inconclusive means small, poorly fitted or top-dose-only effect; inactive means flat fitted curve, though single readings scatter. Potencies of inconclusive entries are left out as doubtful fits. The source holds several records for some structures; these can differ, active in one and inactive in another.

test: qHTS for Inhibitors of human tyrosyl-DNA phosphodiesterase 1 (TDP1): qHTS in cells in presence of CPT; conditions: chicken DT40 Tdp1-/-;hTDP1 cells + 20 nM CPT, ATP luminescence, 48 h; activity change, negative = growth inhibition: at 46.2 µM (top of the series); further: nearly all actives have a fitted effect of over 55% in size
Summary of the method: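 Chicken DT40 Tdp1-/- cells complemented with human TDP1, 400 cells/well, exposed to compounds plus 20 nM camptothecin for at least 48 h at 37 C; viability read as ATP content by CellTiter-Glo luminescence.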
On the % scale 0 is the no-effect control and ±100 the full control effect; potency means the concentration at half of the fitted maximal effect; tags describe the fitted curve by direction and shape.

SMILES	Potency	activity change, negative = growth inhibition
COc1ccc(NC2CCCN(C(=O)c3ccc(C(C)=O)s3)C2)cc1 (configuration not stated)	inactive	
CCOC(=O)[C@]12CCCC=C1N(Cc1ccc3c(c1)OCO3)C(=O)[C@H](CC(=O)N1CCCCC1)C2	active: 13 µM	
OCCOCCn1c(C(CO)Nc2nc(-c3cccc(Br)c3)cs2)nc2ccccc21 (configuration not stated)	inconclusive [inhibitor, single point]	
COc1cc(NC(=O)CCCn2c(=S)[nH]c3ccccc3c2=O)cc(OC)c1OC	inconclusive [inhibitor, single point]	
COC(=O)[C@]12CCCCC=C1N(CCc1ccc(OC)c(OC)c1)C(=O)[C@H](CC(=O)N1CCCCC1)C2	inconclusive [inhibitor, single point]	
COc1cc(/C=N\Nc2cc(=O)n(C)c(=O)n2C)ccc1O	inconclusive [inhibitor, single point]	
COCCNC(=O)C(c1cccnc1)N(Cc1ccccc1)C(=O)Cn1nnc2ccccc21 (configuration not stated)	inactive	
CC(C)NC(=O)CCN1C(=O)c2ccccc2Sc2ncccc21	inactive	
Cc1ccc(NCCC(=O)c2cccs2)cc1Cl	active: 7.31 µM	
O=C(c1ccc([N+](=O)[O-])cc1)N1CCN(c2ncc(Br)cn2)CC1	inconclusive [inhibitor, partial curve]	
CC(=O)c1ccc2c3c(cccc13)C(=O)N(CCc1ccccc1)C2=O	inactive	
COCC(=O)N(CCc1ccccc1)Cc1cc2cc(C)ccc2nc1Cl	inactive	
Cc1ccc(CN2CCN(Cc3c(C)nn(C(C)C)c3C)CC2CCO)o1 (configuration not stated)	inactive	
Clc1cccc(Cl)c1OCCOCCNCc1ccccc1	inconclusive [inhibitor, single point]	
COc1cc(/C=C(\C#N)C(N)=O)cc(CSc2nc3ccccc3s2)c1O	active: 14.6 µM	
CCOC(=O)C1CCN(c2ncnc3c2oc2ccc(Cl)cc23)CC1	inconclusive [inhibitor, single point]	
COc1cccc(OC)c1NC(=O)Cc1nn(C)c(=O)c2ccccc12		inconclusive: -30.9% [inhibitor]
C(=C\c1ccccc1)/CN1CCN(C(c2cccc3ccccc23)c2nnnn2Cc2ccccc2)CC1 (configuration not stated)	active: 16.4 µM	
CC(=O)c1ccc(OCC(=O)N2CCCCC2)cc1	inactive	
CSc1nc2sc3c(c2c(=O)n1-c1ccccc1)CCC(C(C)(C)C)C3 (configuration not stated)	inconclusive [inhibitor, full curve]	
Cc1ccc(NC(=O)C(C)Sc2nnc(C)n2C)cc1 (configuration not stated)	inactive	
CCc1ccc2c(c1)NC(=O)C2(C)Cc1ccccc1OC (configuration not stated)	inconclusive [inhibitor, single point]	
COCCn1c(=O)c2c(nc3n2CC(C)CN3CCc2ccccc2)n(C)c1=O (configuration not stated)	inconclusive [inhibitor, single point]	
CNc1nc(NCc2ccc(C)cc2C)c2sccc2n1	active: 18.4 µM	

SMILES	Potency	activity change, negative = growth inhibition
O=S(=O)(c1ccc2c(c1)OCCO2)N1CCN(c2ncnc3sccc23)CC1	active: 5.17 µM	
COc1ccc(S(=O)(=O)NC(=O)C2(C)CCN2C(=O)C2CCCCC2)cc1OC (configuration not stated)	inconclusive [inhibitor, single point]	
CCCCCCCCCCCCCCCCCC(=O)OCC(C)O (configuration not stated)	inactive	
O=S1(=O)C=C(Sc2nnc(-c3ccccc3)o2)c2ccccc21	active: 0.517 µM	
COc1ccc(C)cc1C(=O)CCC(=O)N1CCN(c2ccccc2F)CC1	inconclusive [inhibitor, single point]	
O=C1C2Sc3[nH]c(=O)sc3C(c3cc([N+](=O)[O-])ccc3O)C2C(=O)N1c1ccccc1 (configuration not stated)	inactive	
CCCCc1cc(=O)oc2cc(OCC(=O)N(CC)CC)ccc12	inactive	
Cc1onc(C(=O)NN)c1C(=O)N1CCN(C(c2ccccc2)c2ccccc2)CC1		inconclusive: -31% [inhibitor]
CC(C)CCNc1nc(N)c([N+](=O)[O-])c(NCC2CCCO2)n1 (configuration not stated)	active: 14.6 µM	
Cn1c(NC(=O)c2ccccc2NC(=O)C(C)(C)C)nc2ccccc21	inconclusive [inhibitor, single point]	
CCCNC(=O)CSc1nc(Cc2ccccc2)nc2ccccc12	inconclusive [inhibitor, single point]	
O=S1(=O)CCOC[C@H](Cc2ccccc2)N1Cc1cccc(Cl)c1		inconclusive: -33.2% [inhibitor]
O=C(Cn1cnc([N+](=O)[O-])n1)N/N=C/c1ccccc1O	active: 16.4 µM	
CC(C)C(NC(=O)c1ccc2c(c1)OCCO2)c1nc2ccccc2[nH]1 (configuration not stated)	inactive	
COc1ccc(NC(=O)CN(C)C(=O)/C=C/c2cn(-c3ccccc3)nc2-c2ccc(C)cc2)cc1	inconclusive [inhibitor, single point]	
COC(=O)CCCNC(=O)c1ccc2nc(Cc3ccc(OC)cc3)oc2c1	inconclusive [inhibitor, single point]	
COc1ccc(C)cc1S(=O)(=O)Nc1cccc(-c2ccc(N3CCCCCC3)nn2)c1	inconclusive [inhibitor, single point]	
CCCSc1nnc2nc(C)cc(C)n12		inconclusive: -22.9% [inhibitor]
CCOC(=O)c1nc(N)c(C(=O)OCC)[nH]1	inconclusive [inhibitor, single point]	
COc1cccc(NC(=O)c2cccc(N3C(=O)C4C5C=CC(C5)C4C3=O)c2)c1 (configuration not stated)	inconclusive [inhibitor, full curve, poor fit]	
COC(C(=O)Nc1ccnn1C1CCN(Cc2cccc(C)n2)CC1)c1ccccc1 (configuration not stated)	inactive	
COc1cccc(C(=O)Nc2sc(C(C)C)cc2C(N)=O)c1OC	inconclusive [inhibitor, single point]	
CCn1cc(/C=C(\NC(=O)c2ccccc2OC)C(=O)NCCN2CCOCC2)c2ccccc21	inconclusive [inhibitor, single point]	
O=C(c1ccco1)N1CCN(C(=O)c2cc(-c3ccncc3)nc3ccc(Br)cc23)CC1	active: 20.6 µM	

SMILES	Potency	activity change, negative = growth inhibition
CC(NC(=O)Cn1cc(C(=O)C2CC2)c2ccccc21)c1ccccc1 (configuration not stated)		inconclusive: -31.6% [inhibitor]
O=C(c1cc(-c2ccc(O)cc2)on1)N1CCN(c2ccccc2)CC1	inactive and active: 18.4 µM	
CCCN1CCN(S(=O)(=O)c2ccc3c(c2)CCC(=O)N3)CC1	inactive	
COc1ccc2[nH]c3c(c(=O)c2c1)CCCC3	inconclusive [inhibitor, single point]	
CCN(c1cccc(C)c1)c1ncnc2c1cnn2-c1cccc(Cl)c1	inconclusive [inhibitor, single point]	
CCn1c(=O)cc(OCC(=O)N2CCN(c3ccc(F)cc3)CC2)c2ccccc21	active: 23.1 µM	
O=C(Cn1nc(-c2ccc(Cl)cc2)ccc1=O)N1CCN(c2ccccc2)CC1	inconclusive [inhibitor, single point]	
Cc1ccc(CN2CCSc3ccc(C(=O)NCC4CCCO4)cc32)cc1 (configuration not stated)	inconclusive [inhibitor, single point]	
COc1ccc(NC(=O)COC(=O)C2CCC(C(C)(C)C)CC2)c([N+](=O)[O-])c1 (configuration not stated)	inconclusive [inhibitor, single point]	
CCCC(O)(c1ccc(Br)cc1)C(CN1CCOCC1)c1ccc(Cl)cc1 (configuration not stated)	inconclusive [inhibitor, single point]	
CC1=C(CC(=O)O)c2cc(F)ccc2C1=Cc1ccc(S(C)(=O)=O)cc1	inactive	
COc1ccc(-n2nc([N+](=O)[O-])c(=NCCc3cccc(C)c3)n2O)cc1	inconclusive [inhibitor, single point]	
O=C(c1ccc(OC2CCN(C/C=C/c3ccccc3)CC2)cc1)N1CCCCC1	inconclusive [inhibitor, single point]	
Cc1cc2c(ncn2Cc2ccccc2)c(NS(C)(=O)=O)c1C		inconclusive: -34.2% [inhibitor]
Cc1cccc(-c2nc3c(c(SCC(=O)N4CCOCC4)n2)COC(C)(C)C3)c1	inconclusive [inhibitor, single point]	
O=C(CSc1ccc2c(c1)OCCO2)Nc1cccnc1	inconclusive [inhibitor, partial curve]	
COc1ccccc1-c1cnc(C(O)c2ccc(F)c(C)c2)[nH]1 (configuration not stated)	inconclusive [inhibitor, full curve]	
COC(=O)c1ccc(NC2=CC(=O)CC(C)(C)C2)cc1	active: 23.1 µM	
COc1cc(OC)c(N(C)C(=O)c2sc3nc4n(c(=O)c3c2C)CCCC4)cc1Cl	inconclusive [inhibitor, single point]	
C[C@H](NC(=O)c1nc[nH]c1C(=O)N[C@@H](Cc1ccccc1)C(=O)OCc1ccccc1)C(=O)OC(C)(C)C	inconclusive [inhibitor, single point]	
COCCNC(=S)N1CCN(c2cccc(C)c2C)CC1	inactive	
CN1CCC(N(C)C(=S)NCCc2ccccc2)CC1	inactive	
Cc1ccc(Nc2nc3ccccc3nc2Nc2c(C)n(C)n(-c3ccccc3)c2=O)cc1	inconclusive [inhibitor, single point]	
COC(=O)[C@H](Cc1ccccc1)NCCCn1cnc(C(=O)Nc2ccc(C)c(C)c2)n1	inconclusive [inhibitor, partial curve, poor fit]	
